PubChem BioAssay (Tox21)
Values joined by “and” are separate entries in the source; they are usually repeats but may differ in a detail not shown here. Identical values can stand only once. Inconclusive results, whose numbers are uncertain, are shown with a selection of clear calls. A potency beside an inconclusive call is a rough fit, not a confirmed value. Active and inactive are the calls of the source. The call rests on the fitted dose curve; in most records, active means well fitted activation curve with a large enough effect in the signal ratio in the repeat runs (not every such curve was filed as active); inconclusive means weak or mixed curves, or effect the other way; inactive means no such curve, though single readings can be large or run the other way; the % refers to the signal ratio.

Assay: qHTS assay for small molecule agonists of the antioxidant response element (ARE) signaling pathway (AID 743202)
Settings: HepG2 ARE-bla reporter, beta-lactamase FRET, 16 h; activation: at 73.3 µM (top of the series) unless noted
Source text: U.S. Tox21 Program National Center for Advancing Translational Sciences [NCATS] NIH Chemical Genomics Center [NCGC] U.S. Environmental Protection Agency [EPA] National Institutes of Environmental Health Sciences [NIEHS] National Toxicology Program [NTP] U.S. Food and Drug Administration [FDA] Tox21 Assay Overview: Oxidative stress has been implicated in the pathogenesis of a variety of diseases ranging from cancer to neurodegeneration. The antioxidant response element (ARE) signaling pathway plays an important role in the amelioration of oxidative stress. The CellSensor ARE-bla HepG2 cell line (Invitrogen) can be used for analyzing the Nrf2/antioxidant response signaling pathway. Nrf2 (NF-E2-related factor 2) and Nrf1 are transcription factors that bind to AREs and activate these genes. The CellSensor ARE-bla Hep G2 cell line contains a beta-lactamase reporter gene under control of the Antioxidant Response Element (ARE) stably integrated into HepG2 cells. The activation of the report gene under culture conditions can be detected by fluorescence intensity. This cell line has been used to screen the Tox21 10K compound library to identify agonists that induce oxidative stress.
Tox21 Assay Protocol Summary: The ARE-bla cells were dispensed at 2,000 cells/5 ul/well in 1536-well black wall/clear bottom plates using a Multidrop dispenser. After the assay plates were incubated at a 37 C/5% CO2 incubator for 5 hours, 23 nL of compounds dissolved in DMSO, positive controls or DMSO only was transferred to the assay plate by a pin tool. The plates were incubated at 37 C for 16 hours. After 1 uL of LiveBLAzer B/G FRET substrate was added using a Flying Reagent Dispenser, the plates were incubated at room temperature for 2 hours, and fluorescence intensity was measured by an Envision plate reader.
On the % scale 0 is the no-effect control and ±100 the full control effect; potency means the concentration at half of the fitted maximal effect; tags describe the fitted curve by direction and shape.

SMILES | activation | Potency
O=C(Cl)c1c(Cl)c(Cl)c(C(=O)Cl)c(Cl)c1Cl | inconclusive: -2.5% | 
CSc1c(Cl)c(Cl)c(Cl)c(Cl)c1Cl |  | inconclusive: 19.2 µM [falling, partial curve, poor fit]
CCCCOCCOCCOCc1cc2c(cc1CCC)OCO2 |  | inconclusive: 49.2 µM and inactive
Clc1ccc2c(c1)C(N1CCNCC1)=Nc1ccccc1O2 | inconclusive: -16.5% | inconclusive: 61.1 µM [falling, partial curve]
Nc1ccc(O)c(C(=O)O)c1 | inconclusive: -1.72% | inconclusive: 24.3 µM [falling, partial curve]
CCCCCCCOC(=O)c1ccc(O)cc1 | inconclusive: 19.6% | 
Cc1cc(Br)ccc1NC(=O)CCl |  | inconclusive: 54.5 µM [falling, partial curve]
CCOC(=O)C1=C(C)NC(C)=C(C(=O)OCC)C1c1ccccc1/C=C/C(=O)OC(C)(C)C |  | inconclusive: 29.8 µM [rising, single point]
COc1ccc(C(Cl)=C(c2ccc(OC)cc2)c2ccc(OC)cc2)cc1 | inconclusive: -2.24% and inconclusive: -14.6% | inconclusive: 1.54 µM [falling, partial curve, poor fit]
CCCNC(=O)NS(=O)(=O)c1ccc(Cl)cc1 | inconclusive: -3.16% | 
CCCCCCC(C)OC(=O)COc1nc(F)c(Cl)c(N)c1Cl (stereo not given) |  | inactive
Brc1ccccc1-c1ccccc1 |  | inconclusive: 57.9 µM
c1ccc2c(c1)-c1cccc3c1c-2cc1ccccc13 |  | active: 1.34 µM and inconclusive: 68.6 µM
CCCCCCCCNC(C)C(O)c1ccc(SC(C)C)cc1 (stereo not given) |  | inconclusive: 26.6 µM [falling, partial curve]
CC(C)(c1ccccc1)c1ccc(Nc2ccc(C(C)(C)c3ccccc3)cc2)cc1 | inconclusive: 11% | inconclusive: 61.1 µM
CC1CCCNC1 (stereo not given) |  | inactive

SMILES | activation | Potency
Cc1ccc(O)c2ncccc12 |  | active: 4.22 µM
CCN(CC)c1ccc(N)cc1 |  | active: 12.5 µM
O=C(Nc1ccc(Cl)cc1)Nc1ccc(Cl)c(C(F)(F)F)c1 |  | inconclusive: 29.8 µM
Cc1cc(F)ccc1-c1cc(N2CC[C@@H](O)[C@H]2CO)ncc1N(C)C(=O)C(C)(C)c1cc(C(F)(F)F)cc(C(F)(F)F)c1 |  | inconclusive: 19 µM [falling, full curve]
CN(C[C@@H](CC[N+]12CCC(C3CCCCC3)(CC1)CC2)c1ccc(Cl)c(Cl)c1)C(=O)c1cc(C(F)(F)F)cc(C(F)(F)F)c1 |  | inconclusive: 30.6 µM [falling, full curve]
C=C(C)C(=O)OCCC[Si](OC)(OC)OC | inconclusive: 11.8% | 
COc1ccc(OC(=O)N(CC(=O)O)Cc2ccc(OCCc3nc(-c4ccccc4)oc3C)cc2)cc1 |  | inconclusive: 26.6 µM [rising, partial curve]
CC(=O)c1cc2ccccc2s1 |  | inactive
Cc1ccc(S(=O)(=O)Oc2ccc(N=Nc3ccc(-c4ccc(N=Nc5c(O)ccc6cc(S(=O)(=O)O)cc(S(=O)(=O)O)c56)c(C)c4)cc3C)cc2)cc1 | inconclusive: -7.07% [at 94.8 µM] | inconclusive: 5.01 µM [falling, full curve]
O=C(c1ccc(O)cc1)c1ccc(O)cc1O | inconclusive: 10.4% | inconclusive: 9.79 µM [rising, partial curve, poor fit]
O=C(NO)c1ccccc1 |  | inconclusive: 23.2 µM
Cc1ccc(-n2[nH]c(C)c(N=Nc3cccc(-c4cccc(C(=O)O)c4)c3O)c2=O)cc1C |  | inconclusive: 1.06 µM [rising, full curve]
CCCCCCCCOC(=O)c1cc(O)c(O)c(O)c1 |  | inconclusive: 3.06 µM [falling, full curve]
C[C@@H]1CC(=O)NN=C1c1ccc(NN=C(C#N)C#N)cc1 |  | inconclusive: 33.5 µM [rising, partial curve, poor fit] and inconclusive: 26.6 µM [rising, partial curve, poor fit]
Oc1ccc(Cl)cc1Cc1cc(Cl)ccc1O | inconclusive: -95.4% | 

Same assay, conditions: HepG2 ARE-bla reporter, beta-lactamase FRET, 16 h; at 73.3 µM (top of the series)

SMILES | activation
O=C(Cl)c1c(Cl)c(Cl)c(C(=O)Cl)c(Cl)c1Cl | inactive: 6.87%
Nc1ccc(O)c(C(=O)O)c1 | inactive: 0.345%
CCCCCCCOC(=O)c1ccc(O)cc1 | inactive: 10.1%
